# Assay results reported in publication PMC6919601, “Identification of Plasmodium dipeptidyl aminopeptidase allosteric inhibitors by high throughput screening” (PLoS ONE, 2019).
# “And” between values parts separate entries of the source, which are not always exact repeats. Identical values can stand only once. The campaign covered roughly 110,000 compounds. About 230 (0.21%) showed an effect of 50% or more. This is one part of the list.
# Molecular target: DPAP1 (Plasmodium falciparum, UniProt Q8IIJ9)
# Sequence (Q8IIJ9 whole entry, looked up): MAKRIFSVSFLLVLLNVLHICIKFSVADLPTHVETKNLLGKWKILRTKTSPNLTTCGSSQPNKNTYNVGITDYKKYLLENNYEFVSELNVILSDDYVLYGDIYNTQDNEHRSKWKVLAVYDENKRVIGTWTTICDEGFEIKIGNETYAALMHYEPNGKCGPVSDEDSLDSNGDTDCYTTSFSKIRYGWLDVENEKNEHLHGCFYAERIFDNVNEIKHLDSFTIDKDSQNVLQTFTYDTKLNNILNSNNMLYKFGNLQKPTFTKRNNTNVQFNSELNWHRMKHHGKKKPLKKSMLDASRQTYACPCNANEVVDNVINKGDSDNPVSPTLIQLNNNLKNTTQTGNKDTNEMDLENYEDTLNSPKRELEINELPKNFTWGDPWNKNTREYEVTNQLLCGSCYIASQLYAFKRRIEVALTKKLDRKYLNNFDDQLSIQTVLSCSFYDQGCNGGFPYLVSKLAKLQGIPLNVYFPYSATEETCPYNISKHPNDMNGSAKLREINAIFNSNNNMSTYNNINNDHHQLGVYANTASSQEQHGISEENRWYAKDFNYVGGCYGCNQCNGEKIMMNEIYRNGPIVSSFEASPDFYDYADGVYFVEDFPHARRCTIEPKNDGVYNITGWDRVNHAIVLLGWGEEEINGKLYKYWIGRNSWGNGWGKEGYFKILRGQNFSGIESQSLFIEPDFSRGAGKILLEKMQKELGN
# Experiment: primary screen, percent inhibition; read by cleavage of a fluorogenic dipeptide substrate; higher = more effect of the substance
# Parameters: species or system P. falciparum D10 trophozoite lysates; single well
# 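Also: 30 min substrate incubation versus DMSO and 10 µM JCP410 controls.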
row,SMILES,% Inhibition @ 10 uM
1,CCc1ccc2ncc(C(=O)c3ccccc3)c(N3CCCC3)c2c1,-6.42%
2,O=c1ncn(-c2ccccc2F)c2ncccc12,-10.2%
3,Cc1ccc(NC(=O)CN(c2cc(C)ccc2C)S(C)(=O)=O)c(C)c1,0.00477%
4,N#Cc1c(N)sc2c1CCCCCC2,25.3%
5,Cc1ccc2onc(CNC(=O)N3CCC(N4CCCCC4)CC3)c2c1,1.93%
6,CCOc1ccc(-n2nnc(-c3nc(-c4ccc(Cl)cc4)no3)c2N)cc1,-6.87%
7,CCOC(=O)C1=C(c2ccccc2)NC(SCC(=O)NC2CCCCC2)=C(C#N)C1c1ccco1 (centres unmarked),-7.77%
8,CCCCCCCc1ccc(-c2nc(-c3ccc(Br)cc3)no2)cc1,4.12%
9,C=CCNC(=S)N1CCN(CC/N=C2/C=C(O)CC(C)(C)C2)CC1,-3.09%
10,O=C(c1ccco1)N1CCN(S(=O)(=O)c2ccc(-c3ccc(O)nn3)s2)CC1,0.92%
11,O=C(NCCN1CCOCC1)c1cc(-c2cccc(Br)c2)nc2ccccc12,2.43%
12,CCNC(=O)/C(=C\c1ccccc1)NC(=O)c1ccc(Br)o1,2.84%
13,O=C(CSc1nc[nH]n1)NCc1ccccc1Cl,4.19%
14,COc1ccc(-c2nc(NC(=O)CSc3ccccc3)sc2CCC(=O)O)cc1,-0.884%
15,CCOc1cc(/C=C2/SC(N)=NC2=O)ccc1OCc1ccc(F)cc1,-0.425%
16,CCOc1ccc(C2C=C(c3ccc(CC)cc3)Nc3ncnn32)cc1OC (centres unmarked),6.17%
17,CCC(=O)Nc1cccc(-c2nc3ncccc3o2)c1,-0.48%
18,CCOc1ccccc1C1C(C#N)=C(N)Oc2cc(O)c(Cl)cc21 (centres unmarked),-6.18%
19,CC(C)Oc1ccc(CN2CCN(CC3COc4ccccc4O3)CC2)cc1 (centres unmarked),-0.902%
20,Cc1cc2c(n1-c1ccc(C(=O)NCCN(C)C)cc1)CCCC2,-0.0871%
21,Cc1ccc(S(=O)(=O)NCC(=O)O)c2nsnc12,4.8%

row,SMILES,% Inhibition @ 10 uM
1,COc1ccc(-c2ccc(/C=C3/SC(N4CCN(C(C)=O)CC4)=NC3=O)o2)cc1,0.487%
2,Cc1ccccc1CN(c1ccc(C(=O)Nc2ccccc2C(=O)N2CCCC2)cc1)S(C)(=O)=O,-1.51%
3,Cc1nn(Cc2ccccc2)c(C)c1NC(=O)CC12CC3CC(CC(C3)C1)C2,-9.77%
4,COc1ccc(C2C3=C(O)CCCC3=NC(C)=C2C(=O)Nc2ccc(Br)cn2)c(OC)c1 (centres unmarked),-3.9%
5,Cc1ccc(S(=O)(=O)NC(C)C(=O)NCc2ccc(Cl)cc2)cc1 (centres unmarked),-7.08%
6,CCCCOC(=O)Nc1sc(-c2ccccc2)cc1C(=O)OCC,2.38%
7,Cn1nc(C(=O)NCC2CCCO2)c2c1-c1ccccc1SC2 (centres unmarked),25.5%
8,COc1ccccc1CNc1ccc(CNc2nc[nH]n2)cc1,-5.06%
9,COC(=O)c1cccc(-c2ccc(C=C3C(=O)OC(c4ccccc4)OC3=O)o2)c1 (centres unmarked),1.84%
10,CCCCc1ccc(/C=C(\C#N)C(N)=S)s1,5.43%
11,Cc1cc(C)cc(Oc2nc3c(C)cccn3c(=O)c2/C=C(\C#N)C(=O)NCCc2ccccc2)c1,0.315%
12,CCN(c1ccccc1)S(=O)(=O)c1ccc(NC(=O)COc2ccc(Cl)cc2)cc1,-0.795%
13,CCOc1ccc(C(=O)C2=C(O)C(=O)N(CCN3CCOCC3)C2c2ccccc2F)cc1C (centres unmarked),1.52%
14,O=C1N/C(=C\c2cccn2-c2ccccc2)C(=O)N1Cc1ccc(Cl)cc1,-3.06%
15,CC1(C)Cc2ccccc2-c2nnc(-c3ccccc3)n21,-1.07% and -1.99%
16,CCOc1ccccc1Oc1coc2cc(O)ccc2c1=O,0.628%
17,O=C(NCCc1nc2ccccc2n1CCOc1ccc(Cl)cc1)c1ccco1,-8.48%
18,CCOC(=O)c1cc2c(=O)n3ccccc3nc2n(Cc2ccco2)/c1=N/C(=O)/C=C/c1ccccc1,1.26%
19,CC(C)Cn1c(S)nnc1-c1nn(C)cc1Cl,0.64%
20,CCCn1c(=N)c(C(=O)OCC)cc2c(=O)n3cccc(C)c3nc21,-1.47%
21,Cc1ccc2c(=O)c(C(=O)c3ccc(Cl)cc3)cn(CC(=O)NC3CCCC3)c2n1,2.01%

row,SMILES,% Inhibition @ 10 uM
1,CC(O)c1cccc(NC(=O)c2cnn3c2NC(c2cccs2)CC3C(F)(F)F)c1 (centres unmarked),-0.725%
2,C#CC(C)(CC)NC(=O)c1ccc(Cl)cc1 (centres unmarked),-6.28%
3,Cc1sc2c(c1C)c(=O)n(CCc1ccccc1)c(=O)n2Cc1ccccc1C#N,-7.27%
4,COCCNC(=O)c1cc2c(s1)-c1ccccc1OC2,1.89%
5,OC(COc1ccccc1F)CN1CCN(c2ccc(F)cc2)CC1 (centres unmarked),-3.29%
6,COc1cccc(C2CC(=O)N3C(=C2C#N)SCC3(O)c2ccc(Cl)cc2)c1OC (centres unmarked),-0.0235%
7,COc1ccc(NC(=O)c2ccccc2NC(=O)c2ccccc2)cc1,-1.98%
8,Cc1ccc(C2=CC(c3ccccc3C)n3ncnc3N2)cc1 (centres unmarked),4.86%
9,CC12C(=O)N(Cc3ccccc3)C(=O)C1C1C=CC2C1 (centres unmarked),-2.78%
10,CN1C(=O)C(=Cc2cn(CCOc3ccccc3)c3ccccc23)C(=O)N(C)C1=O,-1.26%
11,COc1ccccc1-n1c(C)cc(/C=C2/C(=N)N3C(SC)=NSC3=NC2=O)c1C,0.205%
12,COc1ccccc1/C=C/C=c1\sc2nc(-c3ccccc3C)nn2c1=O,-1.18%
13,O=S(=O)(c1ccccc1)c1ccc(S(=O)(=O)N2CCOCC2)cc1,-2.07%
14,Cc1ccc(C(=O)Nc2c(C(=O)N3CCOCC3)cnn2-c2ccccc2)cc1,14.5%
15,Cc1[nH]nc2c1C1(CCCCC1)C(C#N)=C(N)O2,-6.7%
16,CC(C)CC(NC(=O)N1CCN(C)CC1)C(=O)NCC#N (centres unmarked),2.22%
17,COCCNC(=O)CCc1nc(-c2ccccc2Cl)no1,0.366%
18,CC(=O)c1ccc(-n2cnc3c(sc4nc5ccccc5cc43)c2=O)cc1,-2.77%
19,O=C(CNCc1ccccc1)N1c2ccccc2Sc2ccc(C(F)(F)F)cc21,-2.36%
20,CC1(C)Cc2nc(O)c(Cc3ccccc3)c(O)c2C(O)C1 (centres unmarked),-2.83%
